Data taken from PubChem BioAssay AID686979 (National Center for Advancing Translational Sciences (NCATS), 2013).
In all, about 420,000 compounds went through this assay and about 50,000 (12%) were called active. This list was built around the results that the source calls inconclusive (neither active nor inactive); the mix of calls is not that of the screen. Calls come from the whole dose curve; as a rule, active = well fitted inhibition curve with a large enough effect; inconclusive = small, poorly fitted or top-dose-only effect; inactive = flat fitted curve, though single readings scatter. Potencies of inconclusive entries are left out as doubtful fits.

Assay: qHTS for Inhibitors of human tyrosyl-DNA phosphodiesterase 1 (TDP1): qHTS in cells in presence of CPT; note: nearly all actives have a fitted effect of over 55% in size
Details: chicken DT40 Tdp1-/-;hTDP1 cells + 20 nM CPT, ATP luminescence, 48 h; activity change, negative = growth inhibition: at 46.2 µM (top of the series) unless noted
Summary of the method: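 Cell growth measured by CellTiter-Glo luminescence after a minimum 48 h, 37 C compound exposure with 20 nM CPT in Tdp1-knockout DT40 cells stably expressing hTDP1, seeded 400/well; qHTS titration format.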
% is set by controls: 0 for no effect and ±100 for the full control effect; potency is the fitted concentration of half-maximal effect; tags give direction and shape of the fitted curve.

SMILES | Potency | activity change, negative = growth inhibition
CCOc1ccc(NC(=O)CSc2nc3ccccc3nc2N2CCCC2)cc1 | inconclusive [inhibitor, single point] | 
CCOc1ccccc1NC(=O)Cn1c(=O)n(-c2ccc(Cl)cc2)c(=O)c2oc3ccccc3c21 |  | inactive: -15.1%
COc1ccc(N2CCN(C(=O)NC3CC(=O)N(c4ccc(OC)cc4)C3)CC2)cc1 (centres undefined) | inconclusive [inhibitor, single point] | 
COc1ccccc1CN1CCCC(N2CCN(c3ccc(F)cc3)CC2)C1 (centres undefined) |  | inactive: -27.6%
CCOC(=O)C1=CN(Cc2ccco2)S(=O)(=O)N(C)C1c1ccc2ccccc2c1 (centres undefined) | active: 20.6 µM | 
CC1Cc2cc(S(=O)(=O)CCC(=O)Nc3ccc(F)cc3Cl)ccc2N1C(=O)C1CC1 (centres undefined) | active: 23.1 µM | 
CCO[C@H]1OC(C(=O)N2CCCCCCC2)=C[C@@H](C2CCCCC2)[C@@H]1CCCO | active: 25.9 µM | 
C/C(=N\N=c1/sc2ccccc2n1C)c1ccccn1 | inconclusive [inhibitor, single point] | 
COc1cccc(N2CCN(C(=O)C3C4C=CC5(CN(Cc6ccccc6Cl)C(=O)C35)O4)CC2)c1 (centres undefined) | inconclusive [inhibitor, partial curve] | 
COc1ccc(C2Nc3ccc(NC(=O)COC(C)=O)cc3C(=O)N2Cc2ccccc2)cc1COc1ccc(NC(C)=O)cc1 (centres undefined) | active: 17.8 µM | 
COc1ccc(C(=O)NC(=S)Nc2nc(-c3ccc(OC)c(Br)c3)cs2)cc1Br | inconclusive [inhibitor, single point] | 
CNC(=O)c1c(C)nn(-c2ccc(F)c(Cl)c2)c1-c1cc(C)on1 |  | inactive: -4.17%
CCc1cccc(NS(=O)(=O)c2ccc3c(c2)NC(=O)C(C)S3)c1 (centres undefined) | active: 20.6 µM | 
CCCCN(CC)c1nc(-c2ccncc2)nc2ccccc12 | active: 16.4 µM | 
O=C(CN1CCC(C(=O)c2ccc3c(c2)OCCO3)CC1)Nc1ccccc1C(F)(F)F | inconclusive [inhibitor, single point] | 
Cn1c(=O)n(C)c2cc(N3CCCCC3)c(NC(=O)Nc3ccc(Br)cc3)cc21 | inconclusive [inhibitor, single point] | 
COc1ccc(C(=O)Nc2ccccc2C(=O)NC(Cc2ccc(O)cc2)C(=O)NNC(=O)c2ccncc2)cc1 (centres undefined) |  | inactive: 1.83%
Cc1ccnc(NCc2ccc(Cl)cc2)c1 | inconclusive [inhibitor, partial curve] | 
CCOC(=O)C1(CC2CCCCO2)CCN(C(=O)Nc2cccc(SC)c2)CC1 (centres undefined) | inconclusive [inhibitor, single point] | 
CC(C)(C)C(=O)Nc1ccccc1C(=O)Nc1cc(Cl)ccc1Cl | inconclusive [inhibitor, single point] | 
Cc1nnc(SCCn2c(Br)nc3c2c(=O)[nH]c(=O)n3C)s1 |  | inactive: -11.1%
Cn1cccc1Cc1nnc(SCC(=O)Nc2ccc(Cl)cc2)n1-c1ccc(F)cc1 | inconclusive [inhibitor, single point] | 

SMILES | Potency | activity change, negative = growth inhibition
CCN(CC)c1ccc(NC(=O)Cn2cc3c(n2)CCCC3)c(C)c1 | inconclusive [inhibitor, single point] | 
CCCC(=O)Nc1ccc(S(=O)(=O)N2CCC(c3nc4ccccc4[nH]3)CC2)cc1 | inconclusive [inhibitor, partial curve, poor fit] | 
OC(CN1CCOCC1)CN(c1ccccc1)c1ccccc1 (centres undefined) | inconclusive [inhibitor, single point] | 
Cc1ccc(-n2c(=O)c3ccc(C(=O)NCc4ccccc4Cl)cc3n(Cc3cccc(F)c3)c2=O)cc1 | inconclusive [inhibitor, full curve, poor fit] | 
COC(=O)[C@]12CCCCC=C1N(Cc1ccc(Cl)cc1Cl)C(=O)[C@H](CC(=O)NCc1ccc(OC)c(OC)c1)C2 | inconclusive [inhibitor, single point] | 
Cc1ccc(S(=O)(=O)N2CCN(C(=O)Cn3c(=O)oc4ccccc43)CC2)cc1 |  | inactive: -4.57%
O=C(CC12CC3CC(CC(C3)C1)C2)Nc1cccc2ncccc12 | inconclusive [inhibitor, partial curve, poor fit] | 
OC1(c2ccccn2)COc2ccccc2O1 (centres undefined) |  | inactive: 2.88%
Cc1ccc(/C([O-])=C(/C(=S)NCc2ccccc2)[n+]2ccccc2)cc1[N+](=O)[O-] |  | inactive: -23.5%
Cn1cccc1Cc1nnc(SCC(=O)N2CCc3ccccc32)n1CCc1ccccc1 | inconclusive [inhibitor, single point] | 
COc1cccc(N2CCN(C(=O)c3[nH]c(C)c(C(C)=O)c3C)CC2)c1 | active: 5.62 µM | 
COc1ccc(C(=O)NC(=S)NNC(=O)c2cnccn2)cc1 | active: 20.6 µM | 
O=C(Nc1ccc(Cl)c(S(=O)(=O)N2CCOCC2)c1)c1ccccc1-c1ccc(C(F)(F)F)cc1 | inconclusive [inhibitor, single point] | 
O=C(/C=C/c1ccc(Br)o1)Nc1nccs1 | inconclusive [inhibitor, single point] | 
CC(C)(C)NC(=O)CSc1ccc(C(C)(C)C)cc1 |  | inactive: -17.6%
CCOc1cc(C(=S)N2CCOCC2)ccc1OC(=O)c1cccc(C)c1 | inconclusive [inhibitor, single point] | 
Brc1ccc(-c2noc3c2-c2nc(-c4ccccc4)sc2CC3)cc1 | inconclusive [inhibitor, single point] | 
N#CC(NC(=O)OCc1ccccc1)c1ccccc1 (centres undefined) |  | inactive: -27%
CC1(C)CC2CC(C)(CN2S(=O)(=O)c2ccc(F)cc2F)C1 (centres undefined) | inconclusive [inhibitor, single point] | 
COc1cc(OC)c(C(=O)COc2ncnc3ccccc23)c(OC)c1 | inconclusive [inhibitor, single point] | 
COc1ccc(N2CCN(C(CNC(=O)c3c(F)cccc3F)c3ccc4c(c3)OCO4)CC2)cc1 (centres undefined) | inconclusive [inhibitor, single point] | 
Cc1cc(-c2nnc(SCC(=O)NC3CC3)n2C(C)C)cs1 |  | inactive: 1.27%
